# Test results: PubChem BioAssay AID662 (National Center for Advancing Translational Sciences (NCATS), 2007)
# In all, about 71,000 compounds went through this assay and about 1,800 (2.5%) were called active. Inconclusive results, whose numbers are uncertain, are shown with a selection of clear calls. Calls follow the shape of the dose curve; as a rule, active = well fitted activation curve with a large enough effect in the signal ratio, with a control signal flat (not every such curve was filed as active); inconclusive = small, poorly fitted or top-dose-only effect, or effect the other way, or a change in a side signal; inactive = flat fitted curve, though single readings scatter; the % refers to the signal ratio. A potency beside an inconclusive call is a rough fit, not a confirmed value.
# Test: Cell signaling CRE-BLA (Fsk stim); as to activity change, negative = inhibition: % of control where 0% means no effect
# Conditions: CHO CRE-bla reporter (cAMP response element driving beta-lactamase), forskolin EC10, beta-lactamase ratio; activity change, negative = inhibition: at 38.2 µM (top of the series) unless noted
# In short: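 The 460nm/530nm emission ratio after CCF4 loading defined %Activity, from which AC50 values were obtained. CRE-bla CHO cells received compound dilution series together with an EC10 level of NKH 477 for 3 hours at 37 degrees Celsius.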
# Potency is read from the fitted curve at half-maximal effect; tags tell the direction and shape of the fitted curve.
SMILES,"activity change, negative = inhibition",Potency
COc1ccc(NC(=O)c2ccc(Cl)c(S(=O)(=O)N3CCc4ccccc4C3)c2)cn1,inconclusive: -8.18%,–
O=C(CN1CCCC1)NCC1(c2ccccc2)CCOCC1,–,"inconclusive: 25.1 µM [rising, single point]"
O=C(Cn1nc(-c2ccc(Cl)cc2)ccc1=O)N1CCN(c2ccccc2)CC1,–,"inconclusive: 15.8 µM [falling, partial curve]"
COC(=O)CCSCC(=O)Nc1nnc(C)s1,–,inactive
Cc1nc(N2CCN(c3ccccc3)CC2)c2c3c(sc2n1)CCC3,–,active: 3.98 µM
Cc1cccc(-n2c(O)c(C=NCCCN3CCOCC3)c3ccccc3c2=O)c1,inconclusive: 18.2%,–
O=C(NCCN1CCN(c2ccccc2)CC1)C1CCN(S(=O)(=O)c2cccc3nonc23)CC1,–,inactive
COc1ccc(CN2CCN(c3ccccn3)CC2)c(OC)c1,inconclusive: -6.06% [at 7.6 µM],–
O=S1(=O)N=C2CCCCCN2C(c2ccncc2)N1 (stereo not drawn),–,inactive
Cc1ccc(C)c(N2CCN(C(=O)CN(C)S(=O)(=O)c3cnc[nH]3)CC2)c1,inconclusive: 13.3%,–
CCOc1ccccc1C(=O)NC1CC2CCCC(C1)N2Cc1nnnn1Cc1ccco1 (stereo not drawn),inconclusive: 19.1%,–
O=C(CCCn1c(=S)[nH]c2ccc(Br)cc2c1=O)N1CCN(c2ccccn2)CC1,–,"inconclusive: 10 µM [falling, single point]"
Nc1ccccc1C(=O)Nc1cccc(C(=O)O)c1,–,inactive
O=C(Cn1cc2c(n1)CCCC2)NCc1cccnc1,–,inactive
CC(=O)c1cccc(NC(=O)CN(Cc2ccccc2)S(C)(=O)=O)c1,–,inactive
Cc1nc2c(C(=O)N3CCCC3)c[nH]n2c(=O)c1Cc1ccc(F)cc1Cl,inconclusive: -8.02%,–
CCCCOc1cccc(NC(=O)CSc2nccn2C)c1,inconclusive: 10.6% [at 7.6 µM],–
CCOC(=O)c1ccccc1NC(=O)COC,inconclusive: 13.9%,–
Cn1c(SCC(=O)N2CCc3ccccc32)nc2cccnc21,–,"inconclusive: 12.6 µM [rising, partial curve]"
COc1ccccc1NC(=O)C1CC(=O)OC1c1ccccc1 (stereo not drawn),–,inactive
Cc1nnc(SCC(=O)c2ccc(S(=O)(=O)N3CCOCC3)cc2)n1-c1ccccc1,–,inactive
Cc1nnc2sc(-c3ccc(-c4ccc(Cl)c(C(F)(F)F)c4)o3)nn12,inconclusive: 29.6%,–

SMILES,"activity change, negative = inhibition",Potency
CCOC(=O)c1c(NC(=O)CNCCO)sc(C)c1C,–,"inconclusive: 10 µM [rising, single point]"
Cc1sc2ncnc(NCc3ccco3)c2c1C,–,"inconclusive: 15.8 µM [rising, partial curve]"
COc1ccc(Oc2ncc3nc(-c4cccs4)c(=O)n(-c4ccccc4)c3n2)cc1,–,"inconclusive: 2 µM [rising, full curve]"
Clc1cccc(-c2nn3c(Cn4cnc5ccccc54)nnc3s2)c1,–,"inconclusive: 12.6 µM [rising, single point]"
COCCn1c(=O)c(C)nc2cnc(N3CCNCC3)nc21,–,inactive
N#Cc1cccc(-c2nccc(NCc3cccs3)n2)c1,inconclusive: 26.8%,–
CCCCOc1cccc(OCCCC)c1C(=O)Nc1cc(C)on1,inconclusive: -16.2%,–
COc1ccc(-c2nc(C#N)c(NCCN(C)C)o2)cc1,–,inactive
Cc1ccccc1-c1nc(N2CCN(C)CC2)c2ccccc2n1,–,"inconclusive: 12.6 µM [rising, single point]"
COc1ccccc1NC(=O)Cn1nnc(-c2ccccc2NC(=O)c2ccco2)n1,inconclusive: 27.5%,–
O=C(OCCN1CCCCC1)c1ccc(O)cc1,inconclusive: 1.05% [at 7.6 µM],–
CCNc1ncc2nc(C)c(=O)n(CCOC)c2n1,–,active: 10 µM
COC(=O)CSc1ccc2nnc(-c3ccc(OC)c(OC)c3)n2n1,–,"inconclusive: 12.6 µM [rising, partial curve]"
CC(=O)c1c(C)n(-c2ccc(N(C)C)cc2)c2ccc(OCC(N)=O)cc12,inconclusive: 27.9%,–
O=S(=O)(c1ccc(S(=O)(=O)N2CCN(C3CCCCC3)CC2)cc1)N1CCCCCC1,–,inactive
O=C(O)c1ccc2c(c1C(=O)O)C(=O)OC2(c1ccc(O)cc1)c1ccc(O)cc1,inactive: 14.8% [at 7.6 µM],–
Cc1ccc(-c2nc(NCCN3CCOCC3)c3ccccc3n2)cc1,–,"inconclusive: 1 µM [rising, partial curve, poor fit]"
CCOC(=O)c1ccc(S(=O)(=O)N2CCN(CC3CC=CCC3)CC2)cc1 (stereo not drawn),–,inactive
Nc1ccc(S(=O)(=O)Nc2ccnn2-c2ccccc2)cc1,–,inactive
Oc1cc(CN2COc3ccccc32)c(O)cc1CNC1CCCCC1,inconclusive: 19.3% [at 7.6 µM],–
COc1ccccc1C(=O)N(Cc1cccs1)C1CCS(=O)(=O)C1 (stereo not drawn),–,inactive
O=c1cc(CO)oc(CN2CCCC2)c1O,–,inactive

SMILES,"activity change, negative = inhibition",Potency
CCOC(=O)c1c(N)sc2c1CCCC2,–,inactive
Cc1ccc(Cn2ccc(NC(=O)c3cc(C(C)C)on3)n2)cc1,inconclusive: -17.1%,–
Cc1onc(-c2ccccc2)c1C(=O)Nc1ccc2c(C)cc(=O)oc2c1,–,inactive
Cc1cccc2cc(COC(=O)c3ccccn3)c(=O)[nH]c12,–,inactive
CC1=C(C(=O)OCC(C)C)C(c2ccc(F)cc2)NC(=O)N1 (stereo not drawn),–,inactive
C=CCn1c(-c2c[nH]c3ccccc23)n[nH]c1=S,–,inactive
Cn1c(=O)c2c(nc(Br)n2CCCc2ccccc2)n(C)c1=O,–,"inconclusive: 12.6 µM [rising, partial curve]"
CSc1ccc(-c2nc(CSCC(=O)N3CCOCC3)c(C)o2)cc1,–,inactive
Cc1ccc(-n2c(Cc3cccn3C)nnc2SCC(=O)N2CCc3ccccc32)cc1,–,inactive
O=c1c2ccccc2oc2nc(-c3ccco3)n(Cc3ccccc3)c(=O)c12,inconclusive: 17.4%,–
CC(=O)NCc1ccc(C(=O)CSc2nnc(-c3ccncc3)n2Cc2ccccc2)o1,–,inactive
CCC1(CC)C(=O)N(C)C(=O)NC1=NCc1ccccc1,inconclusive: 5.6%,–
Cc1ccc(C(=O)Nc2ccc(S(=O)(=O)N3CCc4ccccc4C3)cc2)o1,inconclusive: -19.4%,–
OCCn1c(SCCOc2ccccc2F)nc2ccccc21,–,"inconclusive: 0.251 µM [rising, full curve]"
O=C(CN1CCN(c2nc(-c3ccc(F)cc3)cs2)CC1)Nc1ccc2c(c1)OCO2,–,"inconclusive: 0.1 µM [falling, single point]"
CCCCC(=O)Nc1nc2ccc3nc(C)sc3c2s1,–,"inconclusive: 12.6 µM [rising, partial curve]"
O=C(O)C1=CCCNC1,inconclusive: -13.7%,–
O=C(COC(=O)c1ccccn1)Nc1ccccc1Cl,–,inactive
CCC(=O)N1CCc2cc(S(=O)(=O)CCC(=O)NCc3ccc4c(c3)OCO4)ccc21,inconclusive: -2.59%,–
Cc1nc(SCc2c(F)cccc2Cl)c2c(=O)n(C)c(=O)n(C)c2n1,–,active: 2 µM
COc1cc(NC(=O)c2cc(C)on2)cc(OC)c1OC,–,inactive
CC1CCN(CCC(=O)N2CCCc3c2c(=O)oc2ccc(O)cc32)CC1,inconclusive: -23.4%,–

SMILES,"activity change, negative = inhibition",Potency
COc1ccccc1-n1nc(C(=O)NCc2ccco2)c2ccccc2c1=O,–,inactive
COc1ccc(C2=CC(c3ccc(F)cc3)n3nnnc3N2)cc1 (stereo not drawn),inconclusive: -14.9% [at 7.6 µM],–
CC(C)Cc1cc(C(=O)NCCCN2CCOCC2)no1,–,inactive
O=S(=O)(c1ccc(Cl)s1)N1CCN(c2ncccn2)CC1,–,inactive
Cn1c(NC(=O)c2cccc(Cn3cc(Cl)cn3)c2)nc2ccccc21,–,inactive
CCOc1ccc(S(=O)(=O)Nc2cc(OC)ccc2OC)cc1,–,active: 12.6 µM
CN1C(=O)CC(N2CCN(CCN=CC3=C(O)CC(C)(C)CC3=O)CC2)C1=O (stereo not drawn),inconclusive: 4.35%,–
Cc1cc(C)c2c(n1)sc1c(O)cc(=O)[nH]c12,–,inactive
COC(=O)c1oc2ccc(Br)cc2c1-n1cccc1,–,"inconclusive: 12.6 µM [rising, single point]"
CCOC(=O)c1cc(-c2ccccc2)sc1NC(=O)C(C)Sc1nnnn1C (stereo not drawn),–,"inconclusive: 25.1 µM [rising, single point]"
COc1cc(CC(=O)N2CCc3ccccc32)cc(OC)c1OC,–,"inconclusive: 3.16 µM [falling, single point]"
CCOC(=O)C1=C(O)C(=O)N(c2ccc(S(N)(=O)=O)cc2)C1c1ccc(OC)cc1 (stereo not drawn),–,inactive
O=C(Cc1ccccc1)NC1CCN(S(=O)(=O)c2cccc(F)c2)CC1,–,inactive
CC(=C1C2C=CC1C1C(=O)NC(=O)C21)c1ccccc1 (stereo not drawn),–,"inconclusive: 12.6 µM [rising, single point]"
COc1cc2c(cc1OC)-c1cc(NC3CCCC3)nc(=O)n1CC2,–,active: 5.01 µM
CCOC(=O)Cn1nnnc1C(CC)N(Cc1cc2ccc(C)cc2[nH]c1=O)C1CCCC1 (stereo not drawn),inconclusive: -6.52%,–
Cc1cc(=O)n2nc(N3CCCC3C(=O)NCc3ccccn3)sc2n1 (stereo not drawn),inconclusive: 0.0686%,–
CCC[C@@H]1C[C@@]1(CCC)C(NC(=O)c1cccs1)c1ccc(Cl)cc1 (stereo partly drawn),–,inactive
CN(CCc1ccccn1)S(=O)(=O)c1ccccc1F,–,"inconclusive: 3.98 µM [falling, single point]"
Cc1onc(-c2c(F)cccc2Cl)c1C(=O)Nc1ccc(S(=O)(=O)Nc2ncccn2)cc1,–,"inconclusive: 3.98 µM [falling, single point]"
Cc1noc(C)c1-c1ccc2ncnc(N3CCC(C(=O)O)CC3)c2c1,–,inactive
COc1cc(OC)cc(C(=O)Nc2ccc3c(c2)COC3=O)c1,inconclusive: 19.1%,–
